Values marked as one replicate rest on one cluster of the flow cell; about a third of the high ones do not repeat.
System: ATP
Assay: switch fluorescence ratio, 500 uM ATP over buffer (Cy3 cluster intensity, sum of 5 cycles each) (fold (ratio)); higher = stronger signal-on switching upon ATP binding; sequences stand for … in TCGTCGGCAGCGTCAGATGTGTATAAGAGACAGTTTTTTTTTTTTTTTTTTTTTTTTT…TC
Settings: aptamer strand: ATP DNA aptamer (quencher-CACCTGGGGGAGTATTGCGGAGGAAGG + anchor), 100 nM annealed; ATP concentration: 500 uM; one replicate
Method in brief: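 The fluorescence ratio divides summed target-cycle Cy3 intensity by summed buffer-cycle Cy3 intensity for each cluster and is averaged per switch-domain sequence. Cy3-labelled switching-strand clusters on a modified Illumina MiSeq flow-cell were annealed to 100 nM quencher-labelled ATP aptamer, then imaged in selection buffer and again after 15 min with 500 uM ATP at 22 °C. Five such cycles were run, with NaOH stripping and re-annealing between them, and clusters outside 100-1000 RFU were excluded.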
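Also: ATP exposure 15 min at 22 °C before imaging.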

Sequence	switch fluorescence ratio
TAGTGGAGAC	1.08
GGTTTCCTTG	0.976
CGTTACGTCA	1.05
AGTGCCACTG	1.02
GTGTCAGTGG	0.988
CAAGGTTCGA	1.02
CGGGTCAGTC	1.06
ATTATGGCAG	0.997
TATTAAGCAC	1.27
GATTCTGCGG	1.03
TACATAATTT	1.06
GGGGCCCGGT	0.948
TGGTTCTGTA	0.996
CAAGGGAGTA	1.01
ACATTTTTGA	1.02
CGCTAGTACG	1.16
GTTATATGGC	0.971
AAGCCATTCG	1.03
TATTATTACC	0.991
TGACTACTGG	1.02
GAAACAGCCA	1.1
GTAATTGATG	0.99
CGATTGTACT	1.08
GCATTCATCT	1.02
AACCGTTGCG	1.04
TAGGGCTATA	1.05

Sequence	switch fluorescence ratio
GCCTGCCGGT	1
CGGCGGCTCG	0.973
CACCGGATTA	1.15
TGCCGACAAT	1.03
AAGGTAGTCC	0.965
GGGCTCCTTT	0.976
TTTGGCCATT	1.01
ATCCGGAAAT	1.08
TCGGTGTAGG	1.02
TGATGCCGT	0.963
ATAGTGTTTG	0.985
CCATTGTAAC	1.01
GTATTGTGGA	0.973
TTTGTAGATA	0.983
CAGTTGTTGT	0.949
TCCGGCCACC	1.18
AAGTACAGGT	1.24
CCATGGCTAT	1.1
TGGTATGGAG	1.04
ATTGCTTA	1.03
AAGCGTGACC	0.984
TTATGAGATT	0.952
TTGCAGAGAT	1.01
CGGGCGCAG	1.01
AGCGCTTTCT	0.993
GGTGGGGCCG	0.956

Sequence	switch fluorescence ratio
GAGGGGTTTC	1.07
CGGGGTGTG	0.981
TCTGGGAAAT	1.06
TGACAGTTGT	1.03
ACAGACAACG	1.1
ATGCGATTCC	1.07
CACAAGACAC	1.15
GTCCTTTCGA	1.1
ATAGATGTG	0.961
GAAGACGCTT	1.05
ACCAGAGAAA	1.02
TATGGGGGG	1.02
GGTTTGGCAT	0.955
GTGCAATGGA	1.08
TAGCAGGGAT	1.29
ACCCGAATGG	1.03
CGCGTTTAGG	1.14
GGGAGTGGTT	0.987
CAATTGGTGA	1.01
TTGCAGGGTT	1.07
CTATCACGT	0.979
GTACTCGGAG	1.01
GAAAGGG	0.998
ACAGCGACGC	1.02
GGTATGATGT	0.985
GGTTTATTCG	1.17

Sequence	switch fluorescence ratio
CGCGGAAGGA	0.947
AAGGGAGTAT	1.01
CTAGTTATTC	0.907
CACGTCATGT	1.12
CGGCTTCTGA	1.02
GTTGATAAAA	1.01
CATCATGTA	1.02
CGGTGTTAGG	0.982
CCAGTCCCTG	1.04
TCAAATATTA	1.01
TTAAGTATCA	0.947
GGTAAGTAAA	1.3
ATAGTCAGGT	0.984
ACCTGGCATA	1.13
CGACGGAATG	1.85
GGGACCGCT	0.995
CTGTTAAATT	1.03
TCGCAAGCCA	1.42
TTAGTTTT	0.953
GCTTAAAGGG	1.03
ATTTTGATT	0.994
TGCTAGCTGA	1
GGTCCTTGCG	1.01
TGATAACCGG	0.924
GTTCTCAGGA	0.996
GCCAGGCTGT	1.03

Sequence	switch fluorescence ratio
ATTTGAGAAT	1.03
CACTCACGTC	1.43
AGCGTCCTGT	0.983
CGCAGTCTGA	0.995
TTGTAGTTGA	0.99
GCGGTCGCCC	1.03
TTGAGGTGT	1
TCAGGTCTCG	0.999
CAGTCAAGCT	1.02
TATATTAGAT	1.01
TCAGACGAGG	1.01
AAATGGAGCA	1.05
AACACACTTT	1.15
AGCAAGTTAC	3.68
CCCGTGGCAC	1.22
CCAGAACCCT	1.08
TCTCGAAGGG	1.03
GACGCCGTTA	0.984
GCATGGACGG	1.02
TAAACTCTTC	1.01
GGAGTTGGTC	1.03
TTAAGCGTCT	1.07
TTGCCGGCC	1.03
CGAGTGCAAG	1.01
TCGCCCCGGA	1.07
GTTATAAATC	0.999

Sequence	switch fluorescence ratio
TTGTTTCTGT	0.987
TTGTAGCGCA	1.03
AAGGAAGAAG	1.01
TATGTCCCCC	1.06
CGACGAAGTA	1.29
GGCGTCAGTA	0.982
GAGTAGAATG	0.985
TTCTCAGGAA	1.23
GGGTCTAGAA	0.977
CTCAGATTCT	1.02
CGATTAGCGA	1.06
TATGGAACGG	0.956
GTATTCTCAC	1.02
TTTATGTTG	1.02
GCCGTTCCCA	0.987
TATCAACAGC	0.994
CGCGCTCCAT	1.37
TCCAGCCGCG	1.47
CATTCCGCGG	1.99
TCTGACTACG	1.01
AGTAGCCTAG	1.01
TGGATGACGT	1.02
GCCCGAGTCC	1.06
